Here are results for 1 substance from PMC4976356, “Structural insight into β-Clamp and its interaction with DNA Ligase in Helicobacter pylori” (Scientific Reports, 2016).

This experiment concerns the target Hpβ-clamp (Helicobacter pylori, UniProt O25242). The experiment in a line: SPR interaction with immobilized Hpβ-clamp (Autolab SPR). The settings on record: peptide 100 μM to 1.7 mM, 10 mM HEPES pH 7.4, 150 mM NaCl, 3 mM EDTA, 0.05% NP-40, 25 °C.

For the substance 953QGGNSLF959 [peptide from alpha], the “binding affinity range (in words), peptide from alpha subunit of DNA Pol III” value was “millimolar range”.
